± gives the standard deviation of the averaged measurements. The full ranking holds about 33,000 sequences; the median of “E-score (dimensionless, -0.5 to 0.5)” is about -0.049, and the highest 2% start at about 0.37. This is one part of the list.
test system: T1, PmTbr T-box DNA-binding domain (GST fusion); assay: PBM E-score of 8-mer (E-score (dimensionless, -0.5 to 0.5)); Tbr is Tbrain of the sea star Patiria miniata (Pm) or the sea urchin Strongylocentrotus purpuratus (Sp); higher = stronger binding preference; most listed sequences are background and not binding sites; details: the construct has about 5 more residues each side
T1 sequence: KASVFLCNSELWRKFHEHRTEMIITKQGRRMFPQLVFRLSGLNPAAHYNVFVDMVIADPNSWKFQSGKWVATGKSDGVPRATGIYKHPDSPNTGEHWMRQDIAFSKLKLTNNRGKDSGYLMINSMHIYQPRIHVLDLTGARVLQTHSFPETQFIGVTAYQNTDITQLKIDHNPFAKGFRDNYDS
Experimental: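 Universal protein-binding microarray (Agilent AMADID 016060, 60-bp probes with a 35-bp variable region) incubated with 200 nM GST-fused Patiria miniata Tbr T-box DNA-binding domain (residues 272-466) in PBS pH 7.5. Scored for every ungapped 8-mer (given with its reverse complement) by the Universal PBM Analysis Suite as E-score (modified Wilcoxon-Mann-Whitney enrichment, range -0.5 to 0.5; >0.45 counts as bound) and Z-score of median probe intensity. Two replicate arrays (datasets 1 and 2).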
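Note: 200 nM protein in PBS on universal arrays averaged over duplicate arrays.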

Sequence | PBM E-score of 8-mer
CGACTATA | -0.153 ± 0.056
AGCCCTAA | -0.161 ± 0.044
ACACACGA | 0.0245 ± 0.0067
CTATCCAC | -0.0558 ± 0.1
ACTGGATC | -0.145 ± 0.07
ATACTGCA | -0.0781 ± 0.055
CGCCACTC | 0.226 ± 0.0046
CAGATCAG | -0.0487 ± 0.023
AAAGCGCC | -0.0541 ± 0.027
AAATGAAT | -0.218 ± 0.048
AGATAATA | -0.0641 ± 0.035
CGTTCCTA | -0.0122 ± 0.086
AGAGAAAT | 0.0644 ± 0.032
AAACGTGG | 0.0598 ± 0.0041
GAGGTGCA | 0.367 ± 0.0099
GCTCCTAA | -0.108 ± 0.0091
AGGATCCC | -0.0401 ± 0.0023
GGTCAAAC | -0.162 ± 0.042
CCCTCGCA | 0.163 ± 0.024
GCAACTGA | 0.12 ± 0.0076
GCTCAGAA | -0.216 ± 0.054
GTCGGAAC | -0.139 ± 0.014
ACACGCAG | 0.198 ± 0.042
GGGATAAA | -0.0387 ± 0.029
ACTTTAAG | 0.00731 ± 0.087

Sequence | PBM E-score of 8-mer
CCTTTTGC | 0.0403 ± 0.052
GCATCCGC | -0.0652 ± 0.048
ACGCCTGC | 0.24 ± 0.0036
ATCGGCCC | -0.338 ± 0.011
AAACAGAA | -0.0563 ± 0.0088
CCTCACTA | 0.0838 ± 0.004
TATTAGGA | -0.186 ± 0.02
CTTCCAGA | -0.274 ± 0.11
CGGCGTAA | -0.126 ± 0.0027
CTCATACA | 0.0245 ± 0.04
AATTCCAA | -0.0744 ± 0.062
GCATGTGA | 0.182 ± 0.024
GTCGCATA | 0.111 ± 0.033
GACATGCA | -0.00971 ± 0.037
ATGGGTCG | -0.0966 ± 0.029
CGACAGCA | 0.0457 ± 0.066
CGACCTTC | 0.0966 ± 0.04
AGGCCTTC | -0.118 ± 0.01
ACCTGAGT | 0.0149 ± 0.011
AGATACAG | -0.184 ± 0.0075
ACTGGCAG | 0.0702 ± 0.038
GATCTCGA | 0.0328 ± 0.028
AGGACGAT | -0.333 ± 0.015
GGACGGTA | -0.228 ± 0.055
CGCGCATA | 0.187 ± 0.044

Sequence | PBM E-score of 8-mer
AGGAACCG | -0.123 ± 0.0091
CACGCGAC | 0.285 ± 0.03
ATCGGAAT | -0.0548 ± 0.0019
GCCTGTCA | 0.184 ± 0.022
CCTCTGGA | -0.0408 ± 0.055
ACATAAGG | -0.166 ± 0.045
AACTGACG | 0.102 ± 0.036
CCGTTCGC | 0.323 ± 0.023
ACACCCTA | 0.383 ± 0.018
AAGCAACC | 0.0368 ± 0.044
AGTTGAAG | -0.1993 ± 0.00098
CCGCAGCC | -0.128 ± 0.032
CACATAAC | 0.24 ± 0.019
GGTTACTA | -0.224 ± 0.027
AACACATC | 0.378 ± 0.013
AGAGCGCT | -0.173 ± 0.074
ATCCGACG | -0.0662 ± 0.0097
CCTTTAAA | -0.112 ± 0.057
GCGACGAA | 0.302 ± 0.0043
ACGTAAAA | -0.181 ± 0.054
AAGCAATG | -0.0127 ± 0.029
TAAGGCTA | -0.13 ± 0.046
AAGAGATT | -0.162 ± 0.015
ACCTTACA | 0.241 ± 0.053
CCGCACGC | 0.157 ± 0.024

Sequence | PBM E-score of 8-mer
CCCTTGTC | -0.145 ± 0.077
GGAGATAA | 0.0713 ± 0.019
ATAGTGCC | -0.0965 ± 0.1
ACATTGCT | 0.0753 ± 0.037
CGGTCCTA | -0.1721 ± 0.0013
TGGGGAAA | 0.00636 ± 0.087
CTTGTTGA | 0.151 ± 0.013
AATTCTAA | -0.128 ± 0.086
AAACATCG | -0.0448 ± 0.038
CAGCATAA | -0.246 ± 0.0042
CATAAAAA | -0.0836 ± 0.037
CCTAAATC | 0.0496 ± 0.0025
GGATTCAA | -0.275 ± 0.062
GACGAGGC | 0.0586 ± 0.12
TAGCCACA | 0.11 ± 0.01
TCTTCCAA | -0.144 ± 0.043
AACACCTT | 0.4857 ± 0.0013
AGTAGACT | -0.153 ± 0.062
GACGTTCC | -0.193 ± 0.065
GAATACTA | -0.143 ± 0.043
ATAGGTTA | -0.261 ± 0.022
AATCCGTG | 0.0745 ± 0.015
CAGGAGAA | -0.192 ± 0.011
CGTGCGGA | 0.0633 ± 0.03
CTAGGTTC | -0.0841 ± 0.0095

Sequence | PBM E-score of 8-mer
GGTACACA | -0.0988 ± 0.052
CACAGATG | 0.0602 ± 0.03
ACACCGCG | 0.337 ± 0.01
CCTGTGAG | 0.227 ± 0.0028
GAACCGGC | -0.12 ± 0.021
CCTTATCA | 0.146 ± 0.036
ACATTCTC | 0.171 ± 0.18
ACCCAGAC | 0.0568 ± 0.091
GCCCATCC | -0.066 ± 0.11
AATCGGCT | -0.0721 ± 0.049
CAAAGTTC | -0.123 ± 0.025
CTTATTAA | -0.213 ± 0.074
CAGGGCAG | -0.088 ± 0.018
AGTATTCG | 0.00711 ± 0.043
CATTGTGC | -0.11 ± 0.028
CGGCGGCC | -0.252 ± 0.023
TACTAACA | 0.196 ± 0.066
CAGGAATC | -0.194 ± 0.1
TATAATGA | -0.109 ± 0.01
CGTATCCC | -0.144 ± 0.051
AGAACCAG | -0.295 ± 0.055
ATTAAGTG | 0.116 ± 0.049
GGTTCAAA | -0.356 ± 0.034
CGCACCAG | 0.2978 ± 0.0014
GCGCCACC | 0.34 ± 0.012

Sequence | PBM E-score of 8-mer
GCGCGGGA | 0.0785 ± 0.072
ATTTCATC | -0.0838 ± 0.045
GCGTTACA | 0.19 ± 0.045
GCAGCAGA | -0.064 ± 0.012
ATCTGTGG | -0.197 ± 0.037
AGTACTTC | -0.25 ± 0.024
GCCCTGTA | -0.204 ± 0.025
GTTTTCTA | -0.204 ± 0.0059
ATAATCCG | -0.0983 ± 0.017
GCAAAAAA | 0.0494 ± 0.066
ATTCCGGA | -0.201 ± 0.06
GAAAAAGA | -0.163 ± 0.074
CCTTGGCC | -0.216 ± 0.043
CAACGCTC | -0.0448 ± 0.0033
CAGAGGAG | -0.0488 ± 0.058
GCGTTTCC | -0.0624 ± 0.0029
AGTCGTAG | -0.0951 ± 0.072
GCATATTA | -0.0131 ± 0.037
AGCGTGAT | 0.207 ± 0.025
GTACGTCA | 0.0376 ± 0.023
CTACCTTA | -0.0827 ± 0.042
TACAGGAA | -0.0757 ± 0.06
GAGTTCTA | -0.132 ± 0.015
ATGATTCG | 0.0158 ± 0.035
CCTTTCAC | 0.3129 ± 0.00054

Sequence | PBM E-score of 8-mer
ATTGGCCG | 0.00906 ± 0.098
CAGACGCC | 0.0844 ± 0.053
ATTTGCAG | 0.0369 ± 0.028
GCGTTCCA | -0.201 ± 0.092
AGGCGAAG | -0.0705 ± 0.037
CCGCCCAA | -0.101 ± 0.091
GGCACAAC | 0.126 ± 0.015
CAAAGGTA | -0.133 ± 0.035
TGTTCCAA | -0.0604 ± 0.099
CCTCACAC | 0.475 ± 0.005
ACTACTGC | 0.00279 ± 0.034
GTTCCTAA | -0.187 ± 0.014
GCATGAGA | -0.112 ± 0.041
ACATTGAC | 0.166 ± 0.075
CCAACTCA | -0.154 ± 0.12
CGAGCTCC | -0.186 ± 0.011
AGGGGTGA | 0.25 ± 0.018
CAAACGGG | -0.107 ± 0.017
CTCGCTGA | 0.0791 ± 0.063
GAACCGTA | -0.134 ± 0.053
CCGCAGCG | 0.0935 ± 0.039
GCGTAAAC | 0.0544 ± 0.011
